{"source": "paper PMC9911399", "about": "“Two distinct binding modes provide the RNA-binding protein RbFox with extraordinary sequence specificity”", "binders": {"B1": {"name": "AAUUCUG (DNA:RNA)", "RNA": "GGGAGACCGGAAUUCAGAUUGUCCAAUUCUGUUAAAUCCCGUCGUAGCCACCA", "DNA 1": "CAATCTGAATTCCGGTCTCCC", "DNA 2": "TGGTGGCTACGACGGGATT"}, "B2": {"name": "UACCGUC (DNA:RNA)", "RNA": "B1 RNA with A25U, U27C, U28C, C29G, G31C", "DNA 1": "CAATCTGAATTCCGGTCTCCC", "DNA 2": "TGGTGGCTACGACGGGATT"}, "B3": {"name": "ACGAGGC (DNA:RNA)", "RNA": "B1 RNA with A26C, U27G, U28A, C29G, U30G, G31C", "DNA 1": "CAATCTGAATTCCGGTCTCCC", "DNA 2": "TGGTGGCTACGACGGGATT"}, "B4": {"name": "GUGCCAA (DNA:RNA)", "RNA": "B1 RNA with A25G, A26U, U27G, U28C, U30A, G31A", "DNA 1": "CAATCTGAATTCCGGTCTCCC", "DNA 2": "TGGTGGCTACGACGGGATT"}, "B5": {"name": "ACGUACA (DNA:RNA)", "RNA": "B1 RNA with A26C, U27G, C29A, U30C, G31A", "DNA 1": "CAATCTGAATTCCGGTCTCCC", "DNA 2": "TGGTGGCTACGACGGGATT"}, "B6": {"name": "ACGGAUG (DNA:RNA)", "RNA": "B1 RNA with A26C, U27G, U28G, C29A", "DNA 1": "CAATCTGAATTCCGGTCTCCC", "DNA 2": "TGGTGGCTACGACGGGATT"}, "B7": {"name": "UUUGAAA (DNA:RNA)", "RNA": "B1 RNA with A25U, A26U, U28G, C29A, U30A, G31A", "DNA 1": "CAATCTGAATTCCGGTCTCCC", "DNA 2": "TGGTGGCTACGACGGGATT"}, "B8": {"name": "GAGGAGU (DNA:RNA)", "RNA": "B1 RNA with A25G, U27G, U28G, C29A, U30G, G31U", "DNA 1": "CAATCTGAATTCCGGTCTCCC", "DNA 2": "TGGTGGCTACGACGGGATT"}, "B9": {"name": "UUGAUCC (DNA:RNA)", "RNA": "GGGAGACCGGAAUUCAGAUUGUCCUUGAUCCUUAAAUCCCGUCGUAGCCACCA", "DNA 1": "CAATCTGAATTCCGGTCTCCC", "DNA 2": "TGGTGGCTACGACGGGATT"}, "B10": {"name": "CUAAUCC (DNA:RNA)", "RNA": "B9 RNA with U25C, G27A", "DNA 1": "CAATCTGAATTCCGGTCTCCC", "DNA 2": "TGGTGGCTACGACGGGATT"}, "B11": {"name": "CUUAGGC (DNA:RNA)", "RNA": "B9 RNA with U25C, G27U, U29G, C30G", "DNA 1": "CAATCTGAATTCCGGTCTCCC", "DNA 2": "TGGTGGCTACGACGGGATT"}, "B12": {"name": "AGCGGCA (DNA:RNA)", "RNA": "B1 RNA with A26G, U27C, U28G, C29G, U30C, G31A", "DNA 1": "CAATCTGAATTCCGGTCTCCC", "DNA 2": "TGGTGGCTACGACGGGATT"}, "B13": {"name": "ACAAGGC (DNA:RNA)", "RNA": "B9 RNA with U25A, U26C, G27A, U29G, C30G", "DNA 1": "CAATCTGAATTCCGGTCTCCC", "DNA 2": "TGGTGGCTACGACGGGATT"}, "B14": {"name": "CAUUAAU (DNA:RNA)", "RNA": "B1 RNA with A25C, C29A, U30A, G31U", "DNA 1": "CAATCTGAATTCCGGTCTCCC", "DNA 2": "TGGTGGCTACGACGGGATT"}, "B15": {"name": "CUAGCGC (DNA:RNA)", "RNA": "B9 RNA with U25C, G27A, A28G, U29C, C30G", "DNA 1": "CAATCTGAATTCCGGTCTCCC", "DNA 2": "TGGTGGCTACGACGGGATT"}, "B16": {"name": "CGCAUAU (DNA:RNA)", "RNA": "B9 RNA with U25C, U26G, G27C, C30A, C31U", "DNA 1": "CAATCTGAATTCCGGTCTCCC", "DNA 2": "TGGTGGCTACGACGGGATT"}, "B17": {"name": "GAUCGUA (DNA:RNA)", "RNA": "B1 RNA with A25G, U28C, C29G, G31A", "DNA 1": "CAATCTGAATTCCGGTCTCCC", "DNA 2": "TGGTGGCTACGACGGGATT"}, "B18": {"name": "GAAUCAA (DNA:RNA)", "RNA": "B1 RNA with A25G, U27A, U30A, G31A", "DNA 1": "CAATCTGAATTCCGGTCTCCC", "DNA 2": "TGGTGGCTACGACGGGATT"}, "B19": {"name": "CCUUUAG (DNA:RNA)", "RNA": "B1 RNA with A25C, A26C, C29U, U30A", "DNA 1": "CAATCTGAATTCCGGTCTCCC", "DNA 2": "TGGTGGCTACGACGGGATT"}, "B20": {"name": "UGUUCAC (DNA:RNA)", "RNA": "B1 RNA with A25U, A26G, U30A, G31C", "DNA 1": "CAATCTGAATTCCGGTCTCCC", "DNA 2": "TGGTGGCTACGACGGGATT"}, "B21": {"name": "ACCGACC (DNA:RNA)", "RNA": "B9 RNA with U25A, U26C, G27C, A28G, U29A", "DNA 1": "CAATCTGAATTCCGGTCTCCC", "DNA 2": "TGGTGGCTACGACGGGATT"}, "B22": {"name": "UACACUG (DNA:RNA)", "RNA": "B1 RNA with A25U, U27C, U28A", "DNA 1": "CAATCTGAATTCCGGTCTCCC", "DNA 2": "TGGTGGCTACGACGGGATT"}, "B23": {"name": "UAAUGCC (DNA:RNA)", "RNA": "B9 RNA with U26A, G27A, A28U, U29G", "DNA 1": "CAATCTGAATTCCGGTCTCCC", "DNA 2": "TGGTGGCTACGACGGGATT"}, "B24": {"name": "CGCUGCA (DNA:RNA)", "RNA": "B1 RNA with A25C, A26G, U27C, C29G, U30C, G31A", "DNA 1": "CAATCTGAATTCCGGTCTCCC", "DNA 2": "TGGTGGCTACGACGGGATT"}, "B25": {"name": "GUGCGAA (DNA:RNA)", "RNA": "B9 RNA with U25G, A28C, U29G, C30A, C31A", "DNA 1": "CAATCTGAATTCCGGTCTCCC", "DNA 2": "TGGTGGCTACGACGGGATT"}, "B26": {"name": "GAUGGUG (DNA:RNA)", "RNA": "B1 RNA with A25G, U28G, C29G", "DNA 1": "CAATCTGAATTCCGGTCTCCC", "DNA 2": "TGGTGGCTACGACGGGATT"}, "B27": {"name": "GACGUGG (DNA:RNA)", "RNA": "B1 RNA with A25G, U27C, U28G, C29U, U30G", "DNA 1": "CAATCTGAATTCCGGTCTCCC", "DNA 2": "TGGTGGCTACGACGGGATT"}, "B28": {"name": "GGUUCCG (DNA:RNA)", "RNA": "B1 RNA with A25G, A26G, U30C", "DNA 1": "CAATCTGAATTCCGGTCTCCC", "DNA 2": "TGGTGGCTACGACGGGATT"}, "B29": {"name": "AUGUCCA (DNA:RNA)", "RNA": "B1 RNA with A26U, U27G, U30C, G31A", "DNA 1": "CAATCTGAATTCCGGTCTCCC", "DNA 2": "TGGTGGCTACGACGGGATT"}, "B30": {"name": "AAUUACA (DNA:RNA)", "RNA": "B1 RNA with C29A, U30C, G31A", "DNA 1": "CAATCTGAATTCCGGTCTCCC", "DNA 2": "TGGTGGCTACGACGGGATT"}, "B31": {"name": "UCUUGAU (DNA:RNA)", "RNA": "B1 RNA with A25U, A26C, C29G, U30A, G31U", "DNA 1": "CAATCTGAATTCCGGTCTCCC", "DNA 2": "TGGTGGCTACGACGGGATT"}}, "note": "Residue numbers refer to the chain shown, from its start. This is one part of the list."}
{"biological_target": "T1, RBFOX1 RRM (Homo sapiens, UniProt Q9NWB1 109-208)", "T1 sequence": "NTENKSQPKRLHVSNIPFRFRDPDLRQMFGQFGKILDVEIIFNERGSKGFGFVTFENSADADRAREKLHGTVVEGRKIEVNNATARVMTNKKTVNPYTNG", "test": "EMSA; HiTS-Eq, 1 nM pool, 10 min; buffer printed only for the single-RNA assays: 10 mM Tris pH 7.5, 150 mM NaCl, 3.4 mM EDTA, 0.001% NP-40, 30 C", "conditions": "tags: His6 N-terminal (pET28a); label: 5' 32P", "procedure,_shortened": "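Purified RbFox RRM (wild type or mutant) was equilibrated for 10 min in 50 µL with 1 nM of a 5′-radiolabelled pool of RNA with 7 randomized nucleotides, its flanks annealed to DNA oligonucleotides, across increasing protein concentrations. Free RNA was separated by 8% native PAGE, excised, reverse-transcribed, PCR-barcoded and sequenced on an Illumina HiSeq 2500. Relative association constants came from read-count changes of each variant against the control reaction, normalised to the cognate motif.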"}
{"binder": "B1", "binding signal": "0.0115 KA relative to UGCAUGU"}
{"binder": "B2", "binding signal": "0.0072 KA relative to UGCAUGU"}
{"binder": "B3", "binding signal": "0.0107 KA relative to UGCAUGU"}
{"binder": "B4", "binding signal": "0.00893 KA relative to UGCAUGU"}
{"binder": "B5", "binding signal": "0.00345 KA relative to UGCAUGU"}
{"binder": "B6", "binding signal": "0.011 KA relative to UGCAUGU"}
{"binder": "B7", "binding signal": "0.0166 KA relative to UGCAUGU"}
{"binder": "B8", "binding signal": "0.0129 KA relative to UGCAUGU"}
{"binder": "B9", "binding signal": "0.0141 KA relative to UGCAUGU"}
{"binder": "B10", "binding signal": "0.0018 KA relative to UGCAUGU"}
{"binder": "B11", "binding signal": "0.0123 KA relative to UGCAUGU"}
{"binder": "B12", "binding signal": "0.0196 KA relative to UGCAUGU"}
{"binder": "B13", "binding signal": "0.00386 KA relative to UGCAUGU"}
{"binder": "B14", "binding signal": "0.00156 KA relative to UGCAUGU"}
{"binder": "B15", "binding signal": "0.011 KA relative to UGCAUGU"}
{"binder": "B16", "binding signal": "0.00741 KA relative to UGCAUGU"}
{"binder": "B17", "binding signal": "0.0149 KA relative to UGCAUGU"}
{"binder": "B18", "binding signal": "0.00683 KA relative to UGCAUGU"}
{"binder": "B19", "binding signal": "0.0111 KA relative to UGCAUGU"}
{"binder": "B20", "binding signal": "0.0103 KA relative to UGCAUGU"}
{"binder": "B21", "binding signal": "0.00253 KA relative to UGCAUGU"}
{"binder": "B22", "binding signal": "0.0103 KA relative to UGCAUGU"}
{"binder": "B23", "binding signal": "0.0126 KA relative to UGCAUGU"}
{"binder": "B24", "binding signal": "0.0198 KA relative to UGCAUGU"}
{"binder": "B25", "binding signal": "0.0116 KA relative to UGCAUGU"}
{"binder": "B26", "binding signal": "0.0236 KA relative to UGCAUGU"}
{"binder": "B27", "binding signal": "0.0166 KA relative to UGCAUGU"}
{"binder": "B28", "binding signal": "0.0168 KA relative to UGCAUGU"}
{"binder": "B29", "binding signal": "0.00494 KA relative to UGCAUGU"}
{"binder": "B30", "binding signal": "0.00153 KA relative to UGCAUGU"}
{"binder": "B31", "binding signal": "0.0155 KA relative to UGCAUGU"}
